Screen size: about 310,000 compounds; about 14,000 (4.5%) showed an effect of 50% or more. The effect is printed as a negative number. The list shows a part of the results.
molecular target: human ether-à-go-go-related gene (hERG) potassium channel (human, UniProt Q12809); assay: primary screen, population patch clamp on CHO cells stably expressing hERG
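Further: peak tail current of the secondary pulse compared with the same well before compound.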

human ether-à-go-go-related gene (hERG) potassium channel, sequence (Q12809 whole entry, looked up): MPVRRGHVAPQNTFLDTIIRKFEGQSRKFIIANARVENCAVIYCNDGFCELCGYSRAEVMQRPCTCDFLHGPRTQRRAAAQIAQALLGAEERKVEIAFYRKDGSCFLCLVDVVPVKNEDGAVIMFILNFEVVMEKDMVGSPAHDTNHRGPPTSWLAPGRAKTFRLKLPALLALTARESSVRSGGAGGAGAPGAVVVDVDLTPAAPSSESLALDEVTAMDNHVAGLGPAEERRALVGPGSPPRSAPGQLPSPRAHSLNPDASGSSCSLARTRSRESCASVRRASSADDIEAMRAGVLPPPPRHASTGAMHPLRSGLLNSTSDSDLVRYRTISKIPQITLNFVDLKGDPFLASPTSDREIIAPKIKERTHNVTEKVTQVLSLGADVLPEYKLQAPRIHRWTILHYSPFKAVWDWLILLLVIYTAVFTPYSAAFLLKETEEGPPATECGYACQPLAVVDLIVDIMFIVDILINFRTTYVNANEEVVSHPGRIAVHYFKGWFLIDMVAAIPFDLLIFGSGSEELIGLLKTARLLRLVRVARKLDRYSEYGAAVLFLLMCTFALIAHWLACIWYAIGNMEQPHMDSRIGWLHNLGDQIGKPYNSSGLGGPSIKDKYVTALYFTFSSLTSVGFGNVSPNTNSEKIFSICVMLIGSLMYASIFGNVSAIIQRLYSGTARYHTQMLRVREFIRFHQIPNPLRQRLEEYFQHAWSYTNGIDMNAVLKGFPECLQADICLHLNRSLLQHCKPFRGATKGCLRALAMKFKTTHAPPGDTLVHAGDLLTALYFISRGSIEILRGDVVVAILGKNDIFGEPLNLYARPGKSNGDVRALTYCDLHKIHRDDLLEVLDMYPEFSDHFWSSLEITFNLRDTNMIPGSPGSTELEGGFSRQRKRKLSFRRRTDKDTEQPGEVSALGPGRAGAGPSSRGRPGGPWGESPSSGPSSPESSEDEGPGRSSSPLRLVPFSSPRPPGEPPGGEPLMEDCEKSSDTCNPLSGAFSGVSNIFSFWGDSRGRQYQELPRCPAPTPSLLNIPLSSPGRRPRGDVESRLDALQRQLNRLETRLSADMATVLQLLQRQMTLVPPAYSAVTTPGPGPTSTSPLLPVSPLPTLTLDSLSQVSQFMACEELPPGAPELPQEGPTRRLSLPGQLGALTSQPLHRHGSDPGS

Row | SMILES | hERG current change (%, negative = inhibition) at 10uM [%]
1 | S=c1nc(COc2ccccc2)[nH]c2ccccc12 | 8.97
2 | Cc1ncoc1C(=O)NC1CC(C)(C)Cc2c1cnn2-c1ccccc1 (centres unmarked) | -20.5
3 | COc1ccc(/C(=N\O)c2nccc3cc(OC)c(OC)cc23)cc1OC | 13.4
4 | Nc1nnnn1/N=C/c1ccc(O)cc1 | 14.7
5 | Cc1ccc2c(c1)c1c(n2CCc2ccc(C)nc2)CCN(C)C1 | -15.8
6 | Cc1ccc(NC(=O)CCS(=O)(=O)c2ccc3c(c2)NC(=O)C(C)S3)cc1Cl (centres unmarked) | 17.3
7 | CCCCCC(=O)N1CC2(CC(c3cccc(NC(=O)CC(c4ccccc4)c4ccccc4)c3)=NO2)C[C@@H]1C(N)=O (some centres unmarked) | 11.4
8 | Cc1cnc2c(c1)C(=O)c1ccccc1-2 | 13.6
9 | Oc1ccc2ccccc2c1C=NCc1ccccc1 | 2.02
10 | CCCc1cc(N2CCCC2)n2nc(C)c(-c3ccccc3)c2n1 | 8.36
11 | Cc1ccc(NC(=O)c2cnccn2)cc1C | 21.9
12 | CCCc1nnc(NC(=O)CCC(=O)NCc2ccc(OC)cc2)s1 | 10.4
13 | COc1ccc(OC(=O)NCCc2ccccc2)cc1 | 4.1
14 | CCC1CCCCN1C(=O)CN1C(=O)c2ccccc2S1(=O)=O (centres unmarked) | -2.42
15 | CC(=O)C1=C(C)NC2(O)c3ccccc3C(=O)C12O (centres unmarked) | -4
16 | O=C(C1CC1)N1CCN(Cc2ccccc2)CC1 | -32.1
17 | COc1ccc(NC(=O)CSCC(=O)N(C)CC(=O)Nc2ccc(Cl)c(C(F)(F)F)c2)cc1 | -68.6
18 | O=C(c1cccc(C(=O)N2CCN(c3ncccn3)CC2)c1)N1CCN(c2ncccn2)CC1 | 0.889
19 | CCOC(=O)C1CCN(C2=C(NS(=O)(=O)c3ccc(Cl)cc3)C(=O)c3ccccc3C2=O)CC1 | -44.5
20 | COc1ccc(NC(=O)CSc2ccc(C)cc2)cc1 | 9.62
21 | COc1ccc(NC(=S)Nc2cc(C)[nH]n2)cc1Cl | 7.38
22 | CN1C=CC(=CC=C2C=CC(=O)C=C2)C=C1 | 17.9
23 | COc1ccc(OC)c(NC(=O)CSc2nc(=O)n(CCN3CCOCC3)c3c2CCC3)c1 | -24

Row | SMILES | hERG current change (%, negative = inhibition) at 10uM [%]
24 | Cc1cc(C)n(CCC(=O)N/N=C/c2ccc(Br)c([N+](=O)[O-])c2)n1 | -18.6
25 | Cc1ccc(NC(=O)CN(C)C(=O)c2ccc(Sc3nncn3C)c([N+](=O)[O-])c2)cc1 | -40.3
26 | COc1ccc(C(CC(=O)O)N2C(=O)CCC2=O)cc1 (centres unmarked) | 10.1
27 | Cc1nc(NCc2ccccc2)c2cc[nH]c2n1 | 21
28 | CC(C)[N+](C)(C)CC#CC(O)(c1ccccc1)c1ccccc1.[Br-] | 17.4
29 | COc1ccc(C(=O)NCc2cccs2)cc1S(=O)(=O)N1CCOCC1 | 12.5
30 | Cc1ccc[n+](C(C)C(=O)Nc2ccc(C)c([N+](=O)[O-])c2)c1.[Br-] (centres unmarked) | -11.4
31 | CCn1c(CCCCc2n[nH]c(=S)n2CC)n[nH]c1=S | 21.6
32 | O=C1Nc2ccccc2N(O)N1c1cc(-c2ccccc2)[nH]n1 | 6.76
33 | COc1ccc(OC)c(C2=NO[C@@](CC(=O)O)(C(=O)Nc3ccc4c(c3)OCCO4)C2)c1 | 13.8
34 | N/C(COc1ncn(-c2ccccc2)n1)=N\S(=O)(=O)c1ccccc1 | 7.7
35 | COc1ccccc1N1CCN(C(=O)c2c(-c3c(Cl)cccc3Cl)noc2C)CC1 | 2.17
36 | O=C(O)C(Cc1c[nH]c2ccccc12)NS(=O)(=O)c1ccc(Cl)cc1 (centres unmarked) | 22.8
37 | COc1ccc2cc(C(c3nnnn3CC3CCCO3)N3CCOCC3)c(=O)[nH]c2c1 (centres unmarked) | -8.78
38 | COc1cc(NS(=O)(=O)c2ccc(N/C=C\C(=O)c3ccc(F)cc3)cc2)nc(OC)n1 | -4.14
39 | CCCCNC(=O)/C(=C/c1ccccc1)NC(C)=O | 2.85
40 | COc1ccc(NC(=O)c2sc3nc(N4CCCC4)c4c(c3c2N)CC(C)(C)OC4)cc1 | 10.3
41 | Cc1ccc(CNC(=O)CC2Sc3ccccc3NC2=O)cc1 (centres unmarked) | 19.3
42 | Cc1cccc(Nc2nc3c(S(=O)(=O)c4ccccc4)nnn3c3ccccc23)c1C | 12.6
43 | O=C(c1cccs1)N1CCN(S(=O)(=O)c2cccs2)CC1 | -12.6
44 | O=C1CN(S(=O)(=O)c2ccc(Cl)cc2)c2ccccc2N1 | 4.25
45 | CC(Oc1ccccc1)C(=O)N1CCC2(CC1)Oc1ccc(F)cc1C(=O)C21CC(c2cccnc2)=NO1 (centres unmarked) | -20.5
46 | C(=N\Nc1nncn1/N=C/c1ccco1)/c1ccco1 | -8.45

Row | SMILES | hERG current change (%, negative = inhibition) at 10uM [%]
47 | O=C(CCc1nnc2ccc(N3CCC4(CC3)OCCO4)nn12)Nc1cc(F)ccc1F | -32.6
48 | O=C(O)c1ccccc1C(=O)N1CCN(C(=O)c2ccccc2Cl)CC1 | 11.9
49 | O=C(CSc1nnc(NC(=O)c2ccco2)s1)NC1CCCC1 | 18.6
50 | COC(=O)Nc1ccc(S(=O)(=O)Nc2cc(C(F)(F)F)c[nH]c2=O)cc1 | 10.7
51 | Cc1c(C(=O)O)sc2nc3n(c(=O)c12)CCC(C)CC3 (centres unmarked) | 0.598
52 | CCOC(=O)N1CCN(CC(=O)Nc2ccc([N+](=O)[O-])cc2C(=O)Nc2ccccc2F)CC1 | -50.7
53 | CCOC(=O)Cn1c(S(=O)(=O)Cc2ccc(F)cc2)nc(-c2ccccc2)c1-c1ccccc1 | -7.15
54 | Cc1ccc(C(=O)N2CCN(S(=O)(=O)N3CCCCCC3)CC2)cc1 | -12.6
55 | COC(=O)CC1=C(C(=O)OC)C(c2cc(OC)c(OC)cc2OC)C(C#N)=C(N)O1 (centres unmarked) | -13.6
56 | OCCC1CN(Cc2cccc(O)c2)CCN1CCc1ccccc1 (centres unmarked) | -24.4
57 | O=C(NNC(=O)c1ccc(NC(=O)c2ccccc2)cc1)c1ccc(F)cc1 | 20.4
58 | Cc1nnc(SCC(=O)Nc2ccc3c(c2)OCCO3)n1N | 12.4
59 | COc1ccccc1OCc1ccc(C(=O)NCc2ccco2)o1 | -25.3
60 | CCN(c1ccccc1)C1(O)C(=O)c2ccccc2C1=O | 19.6
61 | N=C1C2=C3Sc4ccccc4N3CCCC2=NN1c1cccc(S(=O)(=O)O)c1 | 18.4
62 | Cc1cccnc1NC(=O)CSc1nnc(CNC(=O)c2cccc([N+](=O)[O-])c2)n1C | -5.15
63 | COc1ccccc1CNC(=O)C1(NC(=O)Nc2ccc(C)cc2)CCCCC1 | 30.7
64 | COc1ccc(C(=O)N=c2nc3ccccn3s2)cc1 | -1.15
65 | COc1ccccc1/C=N/Nc1nc(C)cc(C)n1 | 8.07
66 | Cn1c(SCC(=O)NCC2CCCO2)nnc1-c1c[nH]c2ccccc12 (centres unmarked) | -3.55
67 | O=C1C2CCCCC2C(=O)N1c1nccs1 (centres unmarked) | -15.2
68 | C/C(=N\NC(=O)CSCc1cccc(Br)c1)c1ccc([N+](=O)[O-])cc1 | 2.93
69 | CCn1c(SCC(=O)Nc2nnc(C)s2)nnc1C(C)NC(=O)c1ccccc1F (centres unmarked) | 16.5

Row | SMILES | hERG current change (%, negative = inhibition) at 10uM [%]
70 | CC(C)(C)Oc1ncc(Br)c(OC(C)(C)C)n1 | -8.79
71 | Cn1c(-c2sc3ccccc3c2Cl)n[nH]c1=S | 8.39
72 | Cc1cccc(-c2c3c(=O)n(C)c(=O)n(C)c3cn2CC2CCCO2)c1 (centres unmarked) | 4.52
73 | CC(C)=CC(=O)Nc1ccc(Br)cc1 | -4.33
74 | COC(=O)c1ccc(NC(=O)c2ccc3c(c2)OCO3)cc1 | -3.45
75 | CCOC(=O)c1[nH]c2ccccc2c1NC(=O)C(CC)CC | 9.58
76 | Cc1ccc(-c2nn(-c3ccccc3)cc2C(=O)O)o1 | 53.1
77 | Cc1ccc(S(=O)(=O)NNC(=O)Nc2ccc([N+](=O)[O-])cc2)c(C)c1 | 3.83
78 | O=C(NC(C(=O)c1ccccc1)N1CCOCC1)c1ccccc1 (centres unmarked) | 12.7
79 | COc1ccc(OC)c(N2CC(O)(c3ccccc3)[N+]3=C2SCCC3)c1.[Br-] (centres unmarked) | -72.6
80 | COc1cc(C2NC(=O)C(C#N)=C(S)N2c2ccccc2)ccc1OC(C)C (centres unmarked) | 3.11
81 | NCCCNc1nc(N)c([N+](=O)[O-])c(NC2CCCCC2)n1 | 4.4
82 | O=C(CSCc1ccc(F)cc1)NC1CCCC1 | -3.27
83 | Cc1cccc(C)c1NC(=O)CN(C)C(=O)c1ccccc1Cc1ccccc1 | -7.95
84 | O=C(CCCC(=O)N1CCN(c2cccc(Cl)c2)CC1)c1ccccc1 | -44.2
85 | CC(C)C(=O)Nc1nnc(SCC(=O)NCc2ccc3c(c2)OCO3)s1 | 12.7
86 | CCOC(=O)N1CCN(S(=O)(=O)c2ccc(OCC(=O)OC)cc2)CC1 | 5.84
87 | O=C1CCC(C(=O)OCc2nnc(-c3ccc(Cl)cc3)o2)=NN1 | 2.93
88 | CCC1CCCCN1C(=O)C1CC(c2cc(Cl)c(OC)cc2OC)=NO1 (centres unmarked) | -4.45
89 | Cn1c(=O)cc(SCC(=O)NCCC2=CCCCC2)c2cc(Cl)ccc21 | 5.01

From paper PMC4336329 (PLoS ONE, 2015)
